Experimental data reported in article PMC4336329 (PLoS ONE, 2015).
The whole screen tested about 310,000 compounds, of which about 2,200 (0.71%) showed an effect of 50% or more. The effect is printed as a negative number. Some of the results follow.

target: human ether-à-go-go-related gene (hERG) potassium channel (human, UniProt Q12809); test: primary screen, population patch clamp on CHO cells stably expressing hERG
Sequence (Q12809 whole entry, looked up): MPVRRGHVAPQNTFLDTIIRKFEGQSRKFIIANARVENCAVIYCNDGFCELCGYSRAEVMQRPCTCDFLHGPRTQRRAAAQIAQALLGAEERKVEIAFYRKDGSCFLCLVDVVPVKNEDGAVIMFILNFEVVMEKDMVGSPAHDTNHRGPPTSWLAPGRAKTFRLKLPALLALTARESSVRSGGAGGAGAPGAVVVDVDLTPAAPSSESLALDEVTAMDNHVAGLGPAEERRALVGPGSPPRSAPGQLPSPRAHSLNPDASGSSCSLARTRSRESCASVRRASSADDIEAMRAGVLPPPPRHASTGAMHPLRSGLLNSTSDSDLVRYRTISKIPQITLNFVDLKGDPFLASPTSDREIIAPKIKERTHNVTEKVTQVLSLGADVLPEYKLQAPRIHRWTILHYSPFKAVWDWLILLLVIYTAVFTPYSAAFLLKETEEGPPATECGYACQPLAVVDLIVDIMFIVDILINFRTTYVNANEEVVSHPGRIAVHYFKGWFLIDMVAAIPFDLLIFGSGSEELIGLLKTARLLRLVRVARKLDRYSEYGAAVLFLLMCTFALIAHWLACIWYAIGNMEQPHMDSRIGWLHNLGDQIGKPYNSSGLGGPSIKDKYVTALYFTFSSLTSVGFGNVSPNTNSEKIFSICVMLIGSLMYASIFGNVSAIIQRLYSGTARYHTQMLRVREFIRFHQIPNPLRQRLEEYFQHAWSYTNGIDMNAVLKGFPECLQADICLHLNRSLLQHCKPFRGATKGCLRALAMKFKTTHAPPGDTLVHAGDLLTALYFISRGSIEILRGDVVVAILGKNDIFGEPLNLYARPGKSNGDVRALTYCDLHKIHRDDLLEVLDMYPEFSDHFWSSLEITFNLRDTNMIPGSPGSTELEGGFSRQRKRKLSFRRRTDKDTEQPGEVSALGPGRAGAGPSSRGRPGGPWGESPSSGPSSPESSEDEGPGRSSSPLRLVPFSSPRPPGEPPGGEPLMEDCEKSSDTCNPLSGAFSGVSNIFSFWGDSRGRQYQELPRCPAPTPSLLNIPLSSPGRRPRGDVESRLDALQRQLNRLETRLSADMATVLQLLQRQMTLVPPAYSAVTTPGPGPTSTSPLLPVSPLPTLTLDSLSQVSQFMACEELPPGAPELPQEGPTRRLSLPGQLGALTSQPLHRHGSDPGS

Compound	hERG current change (%, negative = inhibition) at 1uM [%]
O=C(CN1CCC(NC(=O)C2CC2)CC1)Nc1cccc(F)c1	8.47
Cn1c(=O)c(C(=O)NNC(=O)c2ccccc2F)c(O)c2ccccc21	21
Fc1ccc(SCCc2ccccn2)cc1	14
NS(=O)(=O)c1cc(C2(O)NC(=O)c3ccccc32)ccc1Cl (stereo not shown)	8.65
CC(=O)Nc1ccc(Nc2nc(C)nc3c2nnn3Cc2ccccc2Cl)cc1	-1.49
CCOC(=O)C#CC(CCc1ccccc1)OS(N)(=O)=O (stereo not shown)	16.2
CCOC(=O)CN1C(=O)S/C(=C/c2ccc(O)c([N+](=O)[O-])c2)C1=O	9.65
CN(c1cccc(NC(=O)CN(c2cccc(Cl)c2)S(=O)(=O)c2ccc(Cl)cc2)c1)S(C)(=O)=O	7.54
COc1ccc(-c2cc(C(=O)Nc3c(C)n(C)n(-c4ccccc4)c3=O)c3ccccc3n2)c(OC)c1	16.8
Cc1c2c(c(C)n1C)C(C(=O)NC1CCCCC1)N(Cc1ccccc1)C2=O (stereo not shown)	6.93
CCn1nc(CC(C)C)cc1C(=O)N1CCCC(Nc2ccc(OC)cc2)C1 (stereo not shown)	19.1
COc1ccc(C(=O)N/C(=C\c2cn(C)c3ccccc23)C(=O)NCCCN2CCOCC2)cc1OC	18.5
COc1ccc(C(C(=O)NC2CCCC2)N(C(=O)c2snc(C(N)=O)c2N)c2cccc(O)c2)cc1 (stereo not shown)	14.5
CCc1ccc(NC(=O)c2cccnc2)cc1	10
CC(C)n1cnnc1SCC(=O)NCC(=O)Nc1ccc(F)cc1	15.4
O=C(NCC1CCCCC1)c1cccc(S(=O)(=O)N2CCCC2)c1	9.27
Cc1ccc(CNC(=O)C2CC(=O)N(C3CCCCCCC3)C2)cc1 (stereo not shown)	9.51
Cc1ccccc1OC1CCN(C(=O)C2CCC(=O)N(C3CCCC3)C2)CC1 (stereo not shown)	10.1
COC(=O)C1=C(C)N(Cc2ccccc2)C(=NCc2cccc(C(F)(F)F)c2)N[C@H]1c1cccc(F)c1	9.67
Br.CC[C@H]1CN2CCC1C[C@H]2[C@H](O)c1ccnc2ccc(OC)cc12.O (stereo partly shown)	-7.59
CCOC(=O)C(C)Oc1ncnc2cccc(F)c12 (stereo not shown)	9.04
CN(C1CCCCC1)S(=O)(=O)Cc1ccccc1	-3.15

Compound	hERG current change (%, negative = inhibition) at 1uM [%]
COc1ccccc1N1CCN(Cc2cccc(Br)c2)CC1.O=C(O)C(=O)O	13.7
Cc1cnc(NC(=O)c2c(-c3ccccc3)noc2C)s1	7.4
Cc1cc(OCC(=O)Nc2nnc(C3CC3)s2)ccc1[N+](=O)[O-]	9.15
CCCn1nc2cc(C(=O)N(CC)c3ccc(OC)cc3)ccc2c1OCC	17.4
CSc1nnc(-c2sc3cc(C(F)(F)F)cnc3c2-c2ccccc2)n1C	5.73
O=C(/C=C/c1ccco1)OCC(=O)c1cccc([N+](=O)[O-])c1	8.47
CC(=O)C1=NN(c2ccccc2)C(c2cccs2)N1c1ccccc1 (stereo not shown)	4.15
COc1ccc(NC(=S)N2CCC(C(=O)c3ccc(C)cc3)CC2)cc1	6.92
CC1CCCCC1NC(=O)C1CCN(C(=O)NC2CCCCC2)CC1 (stereo not shown)	-1.4
N#Cc1ccccc1NC(=O)CN(Cc1ccccc1)Cc1ccccc1	13.9
Cl.N=c1c2c(n(Cc3ccc(Cl)c(Cl)c3)c3c1CCC3)CCCC2	8.36
CCN(CC)C(=O)CSc1nnc(-c2ccco2)n1N	-0.55
COc1ccc(C(=O)NCCc2nnc3ccc(SCC(=O)NCc4ccccc4)nn23)cc1	16.7
Cc1cc(C)cc(NC(=O)CSc2nnc(CN3CCOCC3)n2C)c1	2.84
CSCCC(NC(=O)c1ccccc1Br)C(=O)NCc1ccc(F)cc1 (stereo not shown)	2.12
CCCn1c(=O)c(C(=O)NNC(=O)Cc2ccccc2)c(O)c2ccccc21	7.79
COc1ccc2[nH]cc(C(=O)CN3CCCC(C)C3)c2c1 (stereo not shown)	1.08
CC(O)CN(CCC(N)=O)CCC(N)=O.O=C(O)C(=O)O (stereo not shown)	15.6
COc1ccccc1N1CCN(Cc2ccc(Br)s2)CC1	4.25
Cc1ccc(OC(=O)c2ccccc2P(=O)(O)O)cc1	7.83
Cc1cc(S(=O)(=O)Nc2c(C)nc3nc[nH]n3c2=O)ccc1F	13.4
O=C(CNC(=O)c1ccccc1)N/N=C/c1ccc([N+](=O)[O-])o1	5.33

Compound	hERG current change (%, negative = inhibition) at 1uM [%]
Cc1ccc2[nH]c(CN3CCC(CO)(CC4CCCCO4)CC3)c(C)c2c1 (stereo not shown)	-4.62
COc1ccc2o/c(=N/NC(=O)c3cccs3)c(C(N)=O)cc2c1	-8.36
CCOc1ccc(N2C(=O)NC(=O)/C(=C\c3ccccc3[N+](=O)[O-])C2=O)cc1	10.1
COc1cccc(CNC(=O)CCC2CCCN(C(=O)CCC(F)(F)F)C2)c1 (stereo not shown)	4.96
CC(C)=NNc1nc2c(c(=O)n(C)c(=O)n2C)n1C	0.723
CCC(=O)Oc1ccc2c(C)cc(=O)oc2c1C(=O)CC	14.6
NC(=O)c1cc([N+](=O)[O-])ccc1NCc1cccc2ccccc12	13.7
Cc1cc(NC(=O)c2cccc([N+](=O)[O-])c2)n(-c2ccccc2)n1	7.59
O=C(O)CCN1C(=O)/C(=C\c2ccc(OCc3ccccc3)c(OCc3ccccc3)c2)SC1=S	14.6
O=C(c1ccco1)c1cn(CC(=O)N2CCCc3ccccc32)c2ccccc12	-1.79
Cc1nc(SCC(O)CO)c([N+](=O)[O-])[nH]1 (stereo not shown)	7.86
Cc1cc(NC(=O)C(C)Oc2ccc(Cl)cc2Cl)n(-c2ccccc2)n1 (stereo not shown)	8.48
Cc1ccc(N)c(C)c1	2.92
CN1C(=O)C2(C(C#N)=C(N)N(c3cc(Cl)cc(Cl)c3)C3=C2C(=O)CC(C)(C)C3)c2ccccc21 (stereo not shown)	-8.25
Cc1cccc(/C=C2\Sc3ccc(C(=O)N4CCC(C(N)=O)CC4)cc3N(C)C2=O)c1	5.47
CCCNc1cc(C)oc(=O)c1C(=O)CCC	7.87
O=C(Nc1cc(Cl)ccc1Cl)c1ccco1	13.4
CCCC(=O)n1nc(-c2cccnc2)nc1N	-18.9
O=C1c2ccccc2C(=O)N1Cc1cc(Cl)c(O)c([N+](=O)[O-])c1	15.3
O=c1[nH]c(SCc2ccccc2F)nc2ccccc12	7.82
COc1ccc(OCC(O)CN2C(=O)NC(C)(C)C2=O)cc1 (stereo not shown)	15.8
O=C(NOCc1ccccc1)c1ccccc1	13.1

Compound	hERG current change (%, negative = inhibition) at 1uM [%]
Cc1cc2cc(CNC(=O)c3ccco3)ccc2n1C	-6.68
COc1cc(S(=O)(=O)Nc2ccccc2N2CCCCC2)ccc1NC(C)=O	-4.5
COc1cc(OC)c(OC)cc1CN1CCN(S(=O)(=O)c2ccc(F)cc2)CC1.O=C(O)C(=O)O	8.58
Cc1[nH]c2ccccc2c1C(=O)COC(=O)C1CCC(=O)N1 (stereo not shown)	10.5
CC(=O)Nc1ccc(NC(=O)COc2ccc(Br)cc2C)cc1	5.46
C=C(C=O)CC1CC(O)[C@]2(C)OC3CC4OC5C[C@]6(C)O[C@]7(C)CCC8OC9C[C@]%10(C)OC%11C(C)=CC(=O)OC%11CC%10OC9C[C@@H](C)C8OC7CC6O[C@]5(C)CC5OC5C4OC3CC2O1 (stereo partly shown)	-8.24
CNC(=O)CSc1nnc(-c2ccco2)n1-c1ccccc1	11.3
CCc1nnc(NC(=O)CSc2nnc(COc3ccccc3)n2-c2ccc(C)cc2)s1	-8.98
N=C(N)c1ccccc1	-34.8
COc1ccc(CN(C)CC(=O)Nc2cc3oc4ccccc4c3cc2OC)c(OC)c1	8.41
C[C@@H](C(=O)N[C@@H](Cc1c[nH]c2ccccc12)C(=O)O)n1nnc2ccccc2c1=O	23.7
CC(C)Oc1ccc(C(=O)Nc2ccc3c(c2)n(C)c(=O)n3C)cc1	6.41
O=C(Nc1sc2c(c1C(=O)O)CCCCC2)c1ccccc1	22
Cc1ccc(S(=O)(=O)NC2=NCN(CC(=O)[O-])CN2)cc1.[Na+]	-2.9
CCOC(=O)c1sc(=S)n(C)c1NC(=O)c1ccc(OC)cc1	10.9
O=C(O)c1cccc(Oc2ncnc3sc4c(c23)CCCC4)c1	8.99
Cc1coc2cc3oc(=O)c4c(c3cc12)CCCC4	8.03
CC(NC(=O)/C(C#N)=C/c1ccc(Cl)c([N+](=O)[O-])c1)c1ccccc1 (stereo not shown)	2.72
CCC(=O)Nc1ccc2c(c1)OCCO2	-2.64
Cc1cc(SCC(=O)c2ccccc2)nc(=O)[nH]1	13.1
Cc1ccc(N2C(=O)NC(NC(=O)c3ccc(Cl)cc3)(C(F)(F)F)C2=O)cc1 (stereo not shown)	7.28
N#Cc1ccccc1OCC(=O)NC(=O)NC1CCS(=O)(=O)C1 (stereo not shown)	11.4
